Results are given in words; binding and its absence hold for the method and conditions named. For some assays here: Binding seen in cells or lysates may run through a third protein. Some binding calls cover weakened binding; strength is not graded here. For some assays here: Where a sequence is shown, tags or fusion partners need not be part of it.
Legend:
[1] = biological target: T1, GST-tagged human PKD3 ULD–C1a (PKD3^55–206) (human) (UniProt O94806); assay: pull-down; GST-PKD3 ULD–C1a co-expressed with His6-tagged PKD1 or PKD2 ULD–C1a in E. coli BL21*; GSH beads from cleared lysate; anti-GST and anti-His blots
T1 sequence: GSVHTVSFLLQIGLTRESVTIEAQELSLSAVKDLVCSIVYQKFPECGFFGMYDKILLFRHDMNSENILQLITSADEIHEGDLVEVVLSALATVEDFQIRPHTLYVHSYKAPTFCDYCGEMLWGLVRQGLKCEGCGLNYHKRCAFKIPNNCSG

EGFP-tagged PKD2 (human) = biological target: T2, EGFP-tagged PKD2 (human) (UniProt Q9BZL6); assay: co-IP; EGFP- and FLAG-tagged constructs co-expressed in HEK293T; GFP-trap (96-well plate or magnetic beads); lysis in 50 mM Tris pH 7.5, 150 mM KCl, 1 mM MgCl2, 0.5% CHAPS, 1 mM TCEP; anti-FLAG blot
T2 sequence: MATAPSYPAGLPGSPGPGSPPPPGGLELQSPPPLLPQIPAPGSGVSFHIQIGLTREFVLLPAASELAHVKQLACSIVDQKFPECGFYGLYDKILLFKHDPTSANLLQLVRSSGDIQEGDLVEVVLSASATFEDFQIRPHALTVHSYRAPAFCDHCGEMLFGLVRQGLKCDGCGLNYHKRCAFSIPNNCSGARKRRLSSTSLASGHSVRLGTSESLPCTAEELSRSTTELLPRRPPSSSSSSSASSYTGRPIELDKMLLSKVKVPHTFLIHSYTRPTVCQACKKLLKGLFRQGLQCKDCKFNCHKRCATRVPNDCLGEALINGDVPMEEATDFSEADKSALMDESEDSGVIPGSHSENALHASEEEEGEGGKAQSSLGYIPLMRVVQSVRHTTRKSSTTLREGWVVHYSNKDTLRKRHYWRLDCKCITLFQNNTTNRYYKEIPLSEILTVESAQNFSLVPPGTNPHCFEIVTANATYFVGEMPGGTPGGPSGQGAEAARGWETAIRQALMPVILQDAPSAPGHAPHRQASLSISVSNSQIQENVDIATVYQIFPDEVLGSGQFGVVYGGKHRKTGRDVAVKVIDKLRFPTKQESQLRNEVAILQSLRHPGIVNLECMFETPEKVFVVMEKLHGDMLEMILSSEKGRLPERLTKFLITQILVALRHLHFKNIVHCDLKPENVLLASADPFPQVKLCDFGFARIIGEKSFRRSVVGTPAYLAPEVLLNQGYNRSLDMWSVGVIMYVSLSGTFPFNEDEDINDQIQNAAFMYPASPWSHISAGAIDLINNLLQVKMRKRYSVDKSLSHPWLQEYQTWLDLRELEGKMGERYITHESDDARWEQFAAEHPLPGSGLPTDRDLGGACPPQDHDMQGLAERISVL

EGFP-tagged PKD3 (human) = biological target: T3, EGFP-tagged PKD3 (human) (UniProt O94806); assay: as above
T3 sequence: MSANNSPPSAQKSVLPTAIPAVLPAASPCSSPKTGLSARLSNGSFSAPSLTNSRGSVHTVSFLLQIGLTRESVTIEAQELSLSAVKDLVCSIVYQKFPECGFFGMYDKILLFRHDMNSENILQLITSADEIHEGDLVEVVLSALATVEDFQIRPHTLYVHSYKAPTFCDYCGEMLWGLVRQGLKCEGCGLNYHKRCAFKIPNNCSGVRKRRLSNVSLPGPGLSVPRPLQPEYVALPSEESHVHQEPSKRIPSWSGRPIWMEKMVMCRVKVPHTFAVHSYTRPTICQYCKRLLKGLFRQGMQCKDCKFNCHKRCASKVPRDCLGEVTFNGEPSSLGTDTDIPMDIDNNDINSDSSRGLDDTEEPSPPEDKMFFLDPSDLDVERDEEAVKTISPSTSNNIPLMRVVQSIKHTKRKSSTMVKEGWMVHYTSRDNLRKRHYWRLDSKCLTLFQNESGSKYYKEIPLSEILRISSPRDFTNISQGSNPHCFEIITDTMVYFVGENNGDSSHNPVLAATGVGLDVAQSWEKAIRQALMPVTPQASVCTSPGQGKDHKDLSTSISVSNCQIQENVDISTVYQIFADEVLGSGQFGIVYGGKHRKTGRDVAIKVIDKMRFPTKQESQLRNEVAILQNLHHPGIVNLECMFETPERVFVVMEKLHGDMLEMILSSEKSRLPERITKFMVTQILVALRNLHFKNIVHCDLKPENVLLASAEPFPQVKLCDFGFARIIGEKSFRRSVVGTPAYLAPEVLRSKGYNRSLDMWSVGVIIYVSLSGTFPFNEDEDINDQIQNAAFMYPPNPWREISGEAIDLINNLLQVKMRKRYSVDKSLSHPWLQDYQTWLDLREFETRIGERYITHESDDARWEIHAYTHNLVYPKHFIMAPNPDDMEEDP

[2] = biological target: human PKD1 full-length protein (EGFP-tagged or FLAG-tagged copy) (human) (UniProt Q15139); assay: as above
[3] = biological target: DKF-1 ULD F59E (C. elegans) (UniProt Q9XUJ7); assay: SEC-MALS; Superdex 200 10/300; 20 mM Tris pH 7.5, 150 mM KCl, 1 mM TCEP; 50 μl of 2.5 mg/ml protein injected; both purified
[4] = biological target: T4, Atto488-labeled DKF-1 ULD^R42C (C. elegans, UniProt Q9XUJ7 1-94, R42C, Atto488 (maleimide-conjugated) on cysteine 42); assay: fluorescence polarisation; fluorescence anisotropy; ULD or ULD^F59E (222 or 150 μM stock) titrated into 35–70 nM Atto488-ULD^R42C; 20 mM Tris pH 7.5, 150 mM KCl, 1% glycerol, 1 mM TCEP; 20 °C; single-site binding model; dimer to monomers; both purified
T4 construct: C. elegans DKF-1, residues 1-94 (ubiquitin-like domain) with the surface-exposed arginine 42 mutated to cysteine; Labeling efficiency estimated at about 80%; also called Atto488-ULD^R42C; source: E. coli BL21*, purified in the same way as the WT counterpart, labelled with maleimide-Atto488; not shown: GST, N-terminal, cleaved
T4 sequence (looked up): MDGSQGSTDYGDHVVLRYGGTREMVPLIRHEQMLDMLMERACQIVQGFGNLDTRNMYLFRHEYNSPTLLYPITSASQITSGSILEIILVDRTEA

[5] = biological target: DKF-1 ULD–C1a F59E (C. elegans) (UniProt Q9XUJ7); assay: SEC-MALS; Superdex 200 10/300; 20 mM Tris pH 7.5, 150 mM KCl, 1 mM TCEP; 50 μl of 2.5 mg/ml protein injected; both purified

B1: His-tagged human PKD2 ULD–C1a (PKD2^42–190) (domain or fragment, UniProt Q9BZL6 42-190)
chain: GSGVSFHIQIGLTREFVLLPAASELAHVKQLACSIVDQKFPECGFYGLYDKILLFKHDPTSANLLQLVRSSGDIQEGDLVEVVLSASATFEDFQIRPHALTVHSYRAPAFCDHCGEMLFGLVRQGLKCDGCGLNYHKRCAFSIPNNCSG
Q: How did the binding [1] turn out when B1 was run?
A: binds

B2: human PKD1 full-length protein (EGFP-tagged or FLAG-tagged copy) (protein, UniProt Q15139 1-912)
chain: MSAPPVLRPPSPLLPVAAAAAAAAAALVPGSGPGPAPFLAPVAAPVGGISFHLQIGLSREPVLLLQDSSGDYSLAHVREMACSIVDQKFPECGFYGMYDKILLFRHDPTSENILQLVKAASDIQEGDLIEVVLSASATFEDFQIRPHALFVHSYRAPAFCDHCGEMLWGLVRQGLKCEGCGLNYHKRCAFKIPNNCSGVRRRRLSNVSLTGVSTIRTSSAELSTSAPDEPLLQKSPSESFIGREKRSNSQSYIGRPIHLDKILMSKVKVPHTFVIHSYTRPTVCQYCKKLLKGLFRQGLQCKDCRFNCHKRCAPKVPNNCLGEVTINGDLLSPGAESDVVMEEGSDDNDSERNSGLMDDMEEAMVQDAEMAMAECQNDSGEMQDPDPDHEDANRTISPSTSNNIPLMRVVQSVKHTKRKSSTVMKEGWMVHYTSKDTLRKRHYWRLDSKCITLFQNDTGSRYYKEIPLSEILSLEPVKTSALIPNGANPHCFEITTANVVYYVGENVVNPSSPSPNNSVLTSGVGADVARMWEIAIQHALMPVIPKGSSVGTGTNLHRDISVSISVSNCQIQENVDISTVYQIFPDEVLGSGQFGIVYGGKHRKTGRDVAIKIIDKLRFPTKQESQLRNEVAILQNLHHPGVVNLECMFETPERVFVVMEKLHGDMLEMILSSEKGRLPEHITKFLITQILVALRHLHFKNIVHCDLKPENVLLASADPFPQVKLCDFGFARIIGEKSFRRSVVGTPAYLAPEVLRNKGYNRSLDMWSVGVIIYVSLSGTFPFNEDEDIHDQIQNAAFMYPPNPWKEISHEAIDLINNLLQVKMRKRYSVDKTLSHPWLQDYQTWLDLRELECKIGERYITHESDDLRWEKYAGEQGLQYPTHLINPSASHSDTPETEETEMKALGERVSIL
Q: B2 was tested. Which binding (EGFP-tagged PKD2 (human)) did it give?
A: binds

Q: What about the binding (EGFP-tagged PKD3 (human)) of the same binder?
A: binds

Q: And the binding [2]?
A: binds

B3: His-tagged human PKD1 ULD–C1a (PKD1^48–198) (domain or fragment, UniProt Q15139 48-198)
chain: GISFHLQIGLSREPVLLLQDSSGDYSLAHVREMACSIVDQKFPECGFYGMYDKILLFRHDPTSENILQLVKAASDIQEGDLIEVVLSASATFEDFQIRPHALFVHSYRAPAFCDHCGEMLWGLVRQGLKCEGCGLNYHKRCAFKIPNNCSG
Q: B3 was tested. Which binding [1] did it give?
A: binds

B4: DKF-1 ULD F59E (domain or fragment, UniProt Q9XUJ7 1-94)
chain: MDGSQGSTDYGDHVVLRYGGTREMVPLIRHEQMLDMLMERARQIVQGFGNLDTRNMYLERHEYNSPTLLYPITSASQITSGSILEIILVDRTEA
Q: For B4, which binding [3] is on record?
A: no binding (tested: 50 μl of 2.5 mg/ml injected)

Q: What about the binding [4] of the same binder?
A: no binding (tested: titrated from a 150 μM stock)

B5: DKF-1 ULD–C1a F59E (domain or fragment, UniProt Q9XUJ7 1-151)
chain: MDGSQGSTDYGDHVVLRYGGTREMVPLIRHEQMLDMLMERARQIVQGFGNLDTRNMYLERHEYNSPTLLYPITSASQITSGSILEIILVDRTEAAVIPHVVEPESYMRPTFCDFCGEMLTGLMRQGVKCKNCNGNFHKRCSNAARNNCGAP
Q: How did the binding [5] turn out when B5 was run?
A: no binding (tested: 50 μl of 2.5 mg/ml injected)
